Measured values as given in the RNAGym collection of RNA variant scans (doi:10.1073/pnas.2313332121).
Variants at the background level are over-represented here.

B1: TPR 5TU (parent)
chain: GGAUCUUCUCGAUCUAACAAAAAAGACAAAUCUGCCACAAAGCUUGAGAGCAUCUUCGGAUGCAGAGGCGGCAGCCUUCGGUGGCGCGAUAGCGCCAACGUUCUCAACUAUGACACGCAAAACGCGUGCUCCGUUGAAUGGAGUUUAUCAUG

Variants of: B1
Assay: polymerase ribozyme fitness, log enrichment relative to wild type (log ratio); higher = more active; in vitro selection for triplet polymerase activity
In short: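 Libraries of mutants in each subunit of a heterodimeric triplet polymerase ribozyme were generated by PCR and transcribed. In triplicate, each went through one in vitro selection round: annealing with biotinylated primer, partner subunit and triplets; frozen incubation at −7 °C; gel excision of extended constructs; streptavidin-bead capture; RT-PCR. Fitness, taken from Illumina sequencing of input and output libraries, is the logarithm of a genotype's enrichment over wild-type enrichment, averaged across replicates with inverse-variance weights. The logarithm is base 2, and genotypes needed ≥10 input reads and ≥1 read per output to be kept.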

Polymerase ribozyme fitness (log ratio), ≤ -4.2:
GGAUCUUCUCGAUCUAACAAAAAAGAGAAAUCUGCCACAAAGCUUGAGAGUCUCUUCGGAUGCAGAGGCGGCAGCCUUCGGUGGCGCGGUAGCGCCCACGGUCUCAACUAUGACACGCAAAACGCGUGCUCCGUUGAAUGGAGUUUAUCAUG [C27G C51U A52C A89G A97C U101G]
GGAUCUUCUCGAUCUAACAAAAAAGAGAAAUCUGCCACAAAGCUUGAGAGCAUCUACGGAUGCAGAGGCGGCAGCCUUCGGUAGCGCGAUAGCGCCAACGUUCUCAACUAUGACCCGCAAAACGCGUGCUCCGUUGAAUAGAGUUUAUCAUG [C27G U56A G83A A115C G140A]
GGAUCUUCUCGAUCUAACAAAAAAGAGAAAUCUGCCACAAAGCUUGAGAGCAUGUUAGGAUGCAGAGGCGGCAGCCUUCGGUGGCGCGAUAGCGCCAACGUUCUCAACUAUGACACGCAAAACGCGUGCUCCGUUGAAUGGAGUUUAACAUG [C27G C54G C57A U148A]
GGAUCUUCUCGAUCUAACAAAAAAGAGAAAUCUGCCACAAAGCUUGAGAGCAUCUUCGGAUGCAGAGGCGGCAGCCUUCGGUGGCGGGAUAGCGCCAACGUUCUCAACUAUGACACGCAAAACGCGUGCUCCGUUGAAUGGAGUUUAUCAUG [C27G C87G]
GGAUCUUCUCGAUCUAACAAAAAAGAGAAAUCUGCCACAAAGCUUGAGAGCAUCUUCGGAUGCAGAGGCGGCAGCCUUCGGUGGCGCGAUAGUGCCAACGUUCUCAACUAUGACACGCAAAACGCGUGCGCCGUUGAAUGGAGUUUAUCAAG [C27G C93U U130G U151A]
GGAUCUUCUCGAUCUAACAAAAAAGAGAAAUCUGCCACAAAGCUUGAGAGCAUUUUCGGAUGCAGAGGCGGUAGCCUUCGGUGGCGCGAUAGCGCCAACGUUCUCAACUAUGACACGCAAAACGCGUGCUCCGUUGAAUGGAGUUCAUCAUG [C27G C54U C72U U146C]
GGAUCUUCUCGAUCUAACAAAAAAGAGAAAUCUGCCACAAAGCUUGAGAGCAUCUUCGGAUGCAGAGGCGGCAGCCUUCGGUGGCGGAAUAGCGCCAACGUUCUCAACUAUGACACGCAAAACGCGUGCUCCGUUGAAUGGAGUUUACAAUG [C27G C87G G88A U148C C149A]
GGAUCUUCUCGAUCUAACAAAAAAGAGAAAUCUGCCACAAAGCUUGAGAGCAUAUUCGGAUGCAGAGGCGGCAGCCUUCGGUGGCGCGAUAUCGCCAACGUUUUCAACUAUGACACGCAAAACGCGUGCUCCGUUGAAUGGAGUUCCUCAUG [C27G C54A G92U C103U U146C A147C]
GGAUCUUCUCGAUCUAACAAAAAAGAGAAAUCUGCCACAAAGCUUGAGAGCAUUUUCGGAAGCAGAGGCGGCAGCCUUCGGUGGCGCGAUAGCGUCCACGUUCUCAACUAUGACACGCAAAACGCGUGCUCCGUUGCAUGGAGUUUAUCAUG [C27G C54U U61A C95U A97C A137C]
GGAUCUUCUCGAUCUAACAAAAAAGAGAAAUCUGCCACAAAGCUUGAGACCAUCUUCGGAUGCAGAGGCGGCAUCGUUCGGUGGCGCGAUAGCGCCAACGUUCUCAACUAUGACACGCAAAACGCGUGCUCCGUUGAAUGGAGUUUAUCAUG [C27G G50C G74U C76G]
GGAUCUUCUCGAUCUAACAAAAAAGAGAAAUCUGCCACAAAGCAUGAGAGCAUCUUCGGAUGCAGAGGCGGCAGCCUUCGGUGGCGCGAUAGCGGCAACGUUCGCAACUAUGACAGGCAAAACGCGUGCUCCGUUGAAUGGAGUUUAUCAUG [C27G U44A C95G U104G C116G]
GGAUCUUCUCGAUCUAACAAAAAAGAGAAAUCUGCCACAAAGCUUGAGAGCAUCAUCGGAUGCAGAGGCGGCAACCUUCGGUGGAGCGAUAGCGCCACCGUUCUCAACUAUGACCCGCAAAUCGCGUGCUCCGUUGAGUGGAGUUUAUCAUG [C27G U55A G74A C85A A98C A115C A122U A138G]
GGAUCUUCUCGAUCUAACAAAAAAGAGAAAACUGCCACAAAGCUUGAGAGCAUCUUCGGAUGCAGAGGCGGCAGCCUUCGGUGGCGCGAUACCGCCAACGUUCGCAACUAUGACACGCAACACGAGUGCUCCGUUGAAUGGUGUCUAACAUG [C27G U31A G92C U104G A121C C125A A142U U145C U148A]
GGAUCUUCUCGAUCUAACAAAAAAGAGAAAUCUGCCACAAAGCUUGAGAGCAUCUUCGGAUGCAGAGGCGGCAGCCUUCGGUGGCGCGAUAGCCCCAACGUUCUCAACUAUGACACGCAAAACGCGUGCUCCGUUUAAUGGAGUUUAUCAUG [C27G G94C G136U]
GGAUCUUCUCGAUCUAACAAAAAAGAGAAAUCUGCCACAAAGCUUGAGAGCAUCUUCGGAUGCAGAGGCGGCAGCCUUCGGUGGUGCGAUAGCGUCAACGUUCUCAACUAUGACACGCAAAACGCGUGCUCCGUUGAAUGAAGUUUAUCAUG [C27G C85U C95U G141A]
GGAUCUUCUCGAUCUAACAAAAAAGAGAAAUCUGCCACAAAGCUUGAGAGCAUCUUCGGAUGCAGAGGUGGCAGCCUUCGGUGGCGCGAUAGCCCCAACGUUCUCAACUAUGACACGCAAAAUGCGUGCUCCGUUGAAUGGAGUUUAUCAUG [C27G C69U G94C C123U]
GGAUCUUCUCGAUCUAACAAAAAAGAGAAAUCUGCCACAAAACUUGAGAACAUCUUUGGAUGCAGAGGCGGCAGCCUUCGGUGGCGGGAUAGCGCCAACGUUCUCAACUAUGACACGCAAAACGCGUGCUCCGUUGAAUGGAGUUUAUCAUG [C27G G42A G50A C57U C87G]
GGAUCUUCUCGAUCUAACAAAAAAGAGAAAUCUGCCACAAAGCUUGAGAGCAUCUUCGGAUGCAAAGGCGGCAGCCUUCGGUGGCGCGAUAGCGCCAACGUUCUCAACUAUGACACGCAAAACGCGUGCUCCGUUGAAUGGAGUUUAUCAUG [C27G G65A]

Polymerase ribozyme fitness (log ratio), -3.72:
GGAUCUUCUCGAUCUAACAAAAAAGAGAAAUCUGCCACAAAGCUUGAGAACAUCUUCGGAUGCAGAGGCGGCAGCCUUCGGUGGCGCGAUAGCGCCAACGUUCUCAACUAUGACACGCAAAACGCGUGCUCCGUUGAAUGGAGUUUAUCAUG [C27G G50A]
